# Hit rate of the full screen: of about 44,000 compounds, about 340 (0.77%) were called active. Roughly 5% stayed inconclusive and do not appear here. Calls come from the whole dose curve; as a rule, active = well fitted inhibition curve with a large enough effect; inconclusive = small, poorly fitted or top-dose-only effect; inactive = flat fitted curve, though single readings scatter. Some of the results follow.
# Experiment: Acumen qHTS Assay for Inhibitors of the mTORC1 Signaling Pathway in MEF (Tsc2-/-, p53-/-) Cells: Sytravon; note: nearly all actives have a fitted effect of over 50% in size;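 for activity change, negative = inhibition: plate controls were DMSO for no effect and rapamycin for full effect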
# Settings: phospho-rpS6 immunofluorescence/PI, 24 h; series mostly up to 38.3 µM; activity change, negative = inhibition: at the top concentration
# Procedure, shortened: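 Tsc2-/-, p53-/- MEFs (empty-vector stable line) in DMEM + 10% FBS were treated with compounds 24 h at 37 degree Celsius, fixed, and immunostained for phospho-rpS6 (Alexa-488) with propidium iodide counterstain. Laser-scanning cytometry gave % positive cells, normalized against 7.5 nM rapamycin and DMSO.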
# Potency is the fitted concentration of half-maximal effect.
SMILES,"activity change, negative = inhibition",Potency
Cc1ccc(N2CCN(S(=O)(=O)c3ccc(Cl)c4ccccc34)CC2)c(C)c1,inactive: -3.15%,
O=C(CSc1nnc(-c2cccc(F)c2)c(-c2cccc(F)c2)n1)NC1CCCCC1,inactive: -2.2%,
O=C(Cn1ncc2c(=O)oc3ccccc3c21)N1CCN(c2ccc(Cl)cc2)CC1,inactive: -0.898%,
COc1cccc(CSc2nc(-c3ccccc3F)nc3c2Cc2c(CO)cnc(C)c2O3)c1,inactive: -1.22%,
COc1ccc(-n2nc3c(N4CCC(C(=O)NCCc5ccccc5)CC4)nnc(C)c3c2C)cc1,inactive: 0.636%,
COc1cc(Cl)c(C)cc1NC(=O)c1cnn(-c2ccc(F)cc2F)c1C1CCN(C(=O)OC(C)(C)C)CC1,inactive: -7.83%,
COc1ccc2cc(CNc3ccc(C)cc3)c(=O)n(CC(=O)Nc3cccc(Cl)c3C)c2c1,inactive: -9%,
CC(C)(C)c1ccc(C(=O)N(Cc2ccc(F)cc2)Cc2ccco2)cc1,inactive: -14.6%,
Cc1ccc(-c2nnc(Nc3ccccc3)c3ccccc23)cc1S(=O)(=O)N1CCN(C)CC1,inactive: -11.8%,
CCOC(=O)c1c(NC(=O)COc2ccccc2Br)sc2c1CCCCC2,inactive: -2.1%,
COc1ccc(-c2nc(CSc3nnc(C)n4c3cc3oc(C)cc34)c(C)o2)cc1OC,inactive: 3.36%,
O=C(c1cccs1)N(Cc1cccnc1)c1nc2c(F)cc(F)cc2s1,inactive: -9.13%,
CCn1cc2nc(SCc3ccc(F)cc3)n(CCc3ccccc3)c(=O)c2n1,inactive: 4.28%,
CCN(CCCNC(=O)c1ccc(Sc2ccc(Cl)cc2)c(NC(C)=O)c1)c1ccccc1,inactive: -9.8%,
CCN(CC)S(=O)(=O)c1nnc(NC(=O)c2ccc(Br)cc2)s1,inactive: -0.0935%,
Cc1cc(NC(=O)Cn2c(=O)oc3cc(S(=O)(=O)N4CCCC4)ccc32)ccc1Br,inactive: -8.22%,
COc1ccc(CCNC(=O)C2CCCN(S(=O)(=O)c3ccc4c(c3)oc(=O)n4C)C2)cc1OC (configuration not stated),inactive: 2.35%,
Cc1ccc(CNC(=O)CCc2cn(Cc3ccc(C)cc3)c3ccccc23)cc1,inactive: 3.7%,
CCOc1ccc(-c2cc3nc(C4CCN(C(=O)OC(C)(C)C)CC4)c(C(=O)Nc4c(C)cccc4C)cn3n2)cc1,inactive: 0.36%,
Cc1cc(C)c(Cn2c(=O)n(CCCCC(=O)NCc3ccccc3Cl)c(=O)c3ccccc32)c(C)c1,inactive: -1.88%,
CCOC(=O)c1c(C)sc(-c2c(-c3cccc(Cl)c3)[nH]c3c2c(=O)n(C)c(=O)n3C)c1O,inactive: -0.385%,
COc1ccc(NC(=O)C2=C(C)Nc3ncnn3C2c2ccc[nH]2)cc1 (configuration not stated),inactive: -0.0561%,
Cc1c(C(=O)N(C)C)sc2c1c(=O)n(-c1ccc(F)cc1)c(=O)n2Cc1ccccc1C#N,inactive: 0.536%,

SMILES,"activity change, negative = inhibition",Potency
CCc1ccccc1N(C)S(=O)(=O)c1ccc2c(c1)C(C)(C)C(=O)N2C,inactive: -3.79%,
Fc1ccc2c(c1)-c1c(cnc3cc(-c4ccc(Cl)cc4)nn13)CO2,inactive: 7.06%,
CC(=O)N1CCc2cc(CNC(=O)Nc3ccc(Br)c(C)c3)ccc21,inactive: 0.104%,
COc1cccc(NC(=O)c2csnn2)c1,inactive: -6.56%,
C=Cc1ccc(Cn2ccn(-c3ccc(F)c(F)c3)c(=O)c2=O)cc1,inactive: -4.54%,
Cc1ccc(C(=O)Nc2ccc3[nH]c(=O)c(=O)[nH]c3c2)cc1,inactive: 2.59%,
CC(C)Oc1ccc(CNC(=O)Cn2c(-c3cccs3)cc3ccccc32)cc1,inactive: -9.99%,
COc1cc(NC(=O)CC2C(=O)N(c3cccc(C)c3)C(=O)N2Cc2cccs2)cc(OC)c1 (configuration not stated),inactive: -0.445%,
Cc1ccc(C2CCN(C(=O)Nc3ccc(C)c(C)c3)C2)cc1 (configuration not stated),inactive: 1.27%,
COc1cccc(C(=O)Nc2ccc(S(=O)(=O)N(Cc3ccccc3)c3ccccc3)cc2)c1,inactive: -1.46%,
CCS(=O)(=O)N1CCc2cc(C(=O)NCCc3ccc(OC)c(OC)c3)ccc21,inactive: -2.7%,
Cc1cc(C)c(S(=O)(=O)NCCc2csc3nc(-c4ccc(Cl)cc4)nn23)c(C)c1,inactive: -3.17%,
CC(=O)c1ccc(N2CCN(C(=O)C3CCN(S(=O)(=O)c4c(C)noc4/C=C/c4ccccc4F)CC3)CC2)cc1,inactive: -9.22%,
Cc1ccc(C)c(N2CCN(c3nc4ccccc4c(=O)n3-c3ccccc3)CC2)c1,inactive: -13.5%,
O=c1c2c3c(sc2n(Cc2ccc(F)cc2Cl)c(=O)n1-c1ccc(Cl)cc1)CCC3,inactive: 0.349%,
Cc1ccc(NC(=O)c2sc3ncnc(N(C)C4CCCCC4)c3c2C)cc1,inactive: -2.71%,
Cc1ccccc1OCc1ccc(-c2nc(C#N)c(N3CCC(C(N)=O)CC3)o2)o1,inactive: -7.4%,
CCOc1ccc2cc(-c3nnc(Nc4ccc(C)cc4)s3)c(=O)oc2c1,inactive: -8.06%,
CC(=O)Nc1ccc(S(=O)(=O)NCCS(=O)(=O)N2CCN(c3ccccc3F)CC2)cc1,inactive: -3.11%,
COc1cccc(Nc2nc3ccc(C(=O)c4ccccc4)cc3n3c(C)nnc23)c1,inactive: 0.0108%,
COc1ccc(NC(=O)c2ccc(NC(=O)CCS(=O)(=O)c3cccs3)cc2)cc1,inactive: -23.4%,
CCOc1ccc2c(c1)c(=O)c(S(=O)(=O)c1ccc(Cl)cc1)cn2Cc1ccccc1C,inactive: -17.2%,
O=C(Nc1ccc(Cl)c(-c2nc3cc(Cl)ccc3o2)c1)c1cc2ccccc2o1,inactive: -4.62%,

SMILES,"activity change, negative = inhibition",Potency
CCOC(=O)c1c(S(=O)(=O)NCC(=O)N(C)c2ccc(C)cc2)c(C)n(C)c1C,inactive: -5.6%,
Cc1ccccc1NS(=O)(=O)c1nnc(NC(=O)c2ccco2)s1,inactive: -3.66%,
Cc1ccc(C)c(CN2C(=O)c3ccccc3S(=O)c3ccc(C(=O)NCCC4=CCCCC4)cc32)c1 (configuration not stated),inactive: -0.655%,
COc1ccc(CCC(=O)NCCc2csc(-c3cccc(C)c3)n2)cc1,inactive: 0.175%,
CCc1ccccc1N1C(=O)N(CC(=O)c2ccc(OC)cc2)c2ccccc2S1(=O)=O,inactive: -7%,
CCc1cccc(NC(=O)Cn2nc3c4cc(F)ccc4n(Cc4cccc(C)c4)cc-3c2=O)c1,inactive: -8.98%,
COC(=O)CCN(C(=O)C1CCN(S(=O)(=O)c2c(C)noc2/C=C/c2ccccc2F)CC1)c1ccccc1,inactive: -0.821%,
CC(C)Oc1ccc(C(=O)Nc2nonc2-c2ccc(OC(C)C)cc2)cc1,inactive: -0.581%,
CCCNC(=O)c1cnc2c(-c3ccc(OCC)c(OCC)c3)c(C)nn2c1-c1ccccc1,inactive: -6.63%,
CCOC(=O)c1cc(C)n(CC2CCC(C(=O)Nc3cc(OC)cc(OC)c3)CC2)c1C (configuration not stated),inactive: -3.48%,
COc1cc(NC(=O)CC(c2cccs2)N2Cc3ccccc3C2=O)cc(OC)c1OC (configuration not stated),inactive: 0.269%,
CCN(CCCNC(=O)Cn1ncc2c([nH]c3ccc(C)cc32)c1=O)Cc1ccccc1,inactive: -2.52%,
COc1ccc(NC(=O)C(=O)NCc2ccco2)cc1,inactive: 4.91%,
COc1cccc(CN(C(=O)c2cccc(C)c2)C2CCS(=O)(=O)C2)c1 (configuration not stated),inactive: -6.91%,
CC(=O)c1ccc(NC(=O)Cn2nc(C(F)(F)F)c3c2CCCC3)cc1,inactive: 1.72%,
COc1ccc(OC)c(-c2noc(N3CCN(c4cccc(C)c4C)CC3)n2)c1,inactive: -18%,
CCSc1nn(CC(=O)Nc2cccc(Cl)c2)c(N)c1S(=O)(=O)c1ccc(OC)cc1,inactive: -6.48%,
CCc1ccc(NC(=O)Cn2c(=O)n(-c3cc(C)cc(C)c3)c(=O)c3oc4ccccc4c32)cc1,inactive: 0.835%,
COc1ccc(-c2nc(SCC(=O)Nc3ccc4c(c3)OCCO4)c(-c3ccccc3)[nH]2)cc1,inactive: -18.7%,
Cc1ccc(CSc2oc(-c3cccs3)nc2S(=O)(=O)c2ccc(C)cc2)cc1,inactive: 0%,
COC(=O)CC1Oc2ccc(C)cc2-n2cc(-c3ccc(C)cc3)nc21 (configuration not stated),inactive: 2.56%,
COC(=O)c1ccccc1NC(=O)C1=C(C)C(=O)OC12CCC(C)CC2 (configuration not stated),inactive: -14%,
Cc1ccc2oc(C(=O)Nc3sc4c(c3C(=O)NCc3cccnc3)CCCC4)cc(=O)c2c1,inactive: 4.25%,

SMILES,"activity change, negative = inhibition",Potency
Cc1ccc(-n2nc3c(=O)n(CCCC(=O)NC(C)c4ccccc4)nc(C)c3c2C)cc1 (configuration not stated),inactive: -4.25%,
CCOC(=O)/C(C#N)=C/c1ccc(-c2ccc(C)cc2)o1,inactive: 6.92%,
CC(C)CC(=O)Nc1nnc(S(=O)(=O)N2CCc3ccccc32)s1,inactive: 9.21%,
COc1ccccc1Cn1cc(C(=O)c2ccc(C)cc2)c(=O)c2cc(F)cc(F)c21,inactive: -13.6%,
CCCN(CCC)C(=O)Cn1c(=O)n(Cc2ccc(C(=O)NCCc3ccc(Cl)cc3)cc2)c(=O)c2ccccc21,inactive: 7.2%,
COc1ccccc1NS(=O)(=O)c1cc2c(cc1Cl)NC(=O)CO2,inactive: 5.75%,
CCOc1ccc(CCNC(=O)CSc2cc(=O)n(C)c3ccc(Cl)cc23)cc1OCC,inactive: -1.3%,
CCCc1cnc2c(c1SCc1ccc(C(F)(F)F)cc1)c(=O)n(C)c(=O)n2C,inactive: 0.477%,
CC(C)Oc1ccc(CNC(=O)c2ccc(Cn3c(=O)c4cccn4c4cccnc43)cc2)cc1,inactive: 4.44%,
Cc1ccc(NC(=O)CSc2ccc(-c3sc(-c4ccccc4)nc3C)nn2)cc1F,inactive: -0.111%,
Cc1cccc(N2CCN(C(=O)CCSCc3ccccc3F)CC2)c1C,inactive: 5.49%,
COc1ccccc1N1CCN(C(=O)Cn2ncc3c(=O)oc4ccc(C)cc4c32)CC1,inactive: 0.682%,
CC(=O)c1ccc(NC(=O)Cn2c(=O)n(Cc3ccco3)c(=O)c3sc4ccccc4c32)cc1,inactive: -8.22%,
Cc1cccc(CNC(=O)c2cnc3sc(N4CCCCCC4)nn3c2=O)c1,inactive: -2.83%,
COc1ccc(-c2nsc(NC(=O)c3oc4cc(C)c(C)cc4c3C)n2)cc1,inactive: -2.81%,
Cc1ccc(N(Cc2cccs2)C(=O)COc2cccc(C)c2)cc1,inactive: 1.69%,
COc1ccc(C2=NC(C)(C)N(CC(=O)Nc3ccc(F)c(F)c3)C2=O)cc1,inactive: 1.46%,
Cc1nn2c(=O)cc(COC(=O)CNC(=O)c3ccc(F)cc3)nc2s1,inactive: -6.97%,
CCN1CCN(c2cc(C)c3cc(NC(=O)c4cc(Cl)ccc4OC)ccc3n2)CC1,,active: 2.61 µM
Cc1ccc(-n2ncc(C(=O)NCCCN3CCCCC3)c2C2CCN(C(=O)OC(C)(C)C)CC2)cc1,inactive: -28.6%,
COc1cccc(OC)c1C(=O)Nc1ccc(S(=O)(=O)Nc2nccc(C)n2)cc1,inactive: -2.76%,
Cc1ccc(NC(=O)c2c(C)nc3sc(C(=O)Nc4ccc(F)cc4)c(N)c3c2-c2ccccc2Cl)c(C)c1,inactive: -12.3%,
CCOC(=O)c1c(C)n(-c2ccccc2)c2ccc(OC(=O)c3ccccc3NC(=O)C(C)(C)C)cc12,inactive: -1.78%,
